# Measurements as given in the supplement of paper PMC12217912.
# The other results are listed elsewhere or left out. The full chains were built here from the parent and the listed change. Values near 0.05 are background.
# B1: TEV protease; numbered along this chain (parent)
# chain: MGESLFKGPRDYNPISSSICHLTNESDGHTTSLYGIGFGPFIITNKHLFRRNNGTLVVQSLHGVFKVKDTTTLQQHLVDGRDMIIIRMPKDFPPFPQKLKFREPQREERICLVTTNFQTKSMSSMVSDTSCTFPSGDGIFWKHWIQTKDGQCGSPLVSTRDGFIVGIHSASNFTNTNNYFTSVPKNFMELLTNQEAQQWVSGWRLNADSVLWGGHKVFMVKPEEPFQPVKEATQL
# Variants of: B1
# Experiment: raw area under fraction-flipped curve 0-4 h after induction (AUC4h, not background-subtracted), DNA-recorder readout of cleavage of the substrate (dimensionless); higher = more cleavage of the substrate by the protease variant
# Details: temperature: 34 °C; time window: 0-4 h after rhamnose induction
# Procedure: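 In vivo DNA recorder in E. coli TOP10(DE3) ΔrhaA at 34 °C. Each TEVp single-site mutant (parent TEVp 0) is paired with a single-site variant of the 7-mer TEVs (canonical ENLYFQ|S). The substrate sits between flexible linkers in a Bxb1-sfGFP-TEVs-SsrA fusion, so cleavage stabilises Bxb1 and speeds flipping of a recombination array, read by NGS. The value is the raw area under the fraction-flipped curve over 0-4 h after rhamnose induction (AUC4h), with ≥20 reads per time point. It is not background-subtracted; inactive controls average about 0.047.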
# 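Note: Bxb1 expression induced with 0.2% (w/v) L-rhamnose at OD600 near 0.5, cultures sampled hourly, flipped fraction per protease–substrate barcode pair counted by paired-end Illumina sequencing.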
variant,measurement,value
K46C,area with substrate ENLYFAS,0.0573
same,area with substrate ENLYFCS,0.0647
same,area with substrate ENLYFDS,0.0483
same,area with substrate ENLYFES,0.0549
same,area with substrate ENLYFFS,0.06
same,area with substrate ENLYFIS,0.0496
same,area with substrate ENLYFKS,0.0596
same,area with substrate ENLYFMS,0.0587
same,area with substrate ENLYFPS,0.0653
same,area with substrate ENLYFRS,0.0517
same,area with substrate ENLYFSS,0.0668
same,area with substrate ENLYFTS,0.0582
K46T,area with substrate ENLYFAS,0.0635
same,area with substrate ENLYFCS,0.0546
same,area with substrate ENLYFDS,0.0569
same,area with substrate ENLYFES,0.0608
same,area with substrate ENLYFFS,0.0548
same,area with substrate ENLYFHS,0.0505
same,area with substrate ENLYFIS,0.058
same,area with substrate ENLYFKS,0.057
same,area with substrate ENLYFLS,0.0345
same,area with substrate ENLYFMS,0.0668
same,area with substrate ENLYFNS,0.0512
same,area with substrate ENLYFTS,0.0589
K46M,area with substrate ENLYFAS,0.0455
same,area with substrate ENLYFCS,0.0572
same,area with substrate ENLYFDS,0.0608
same,area with substrate ENLYFES,0.0532
same,area with substrate ENLYFFS,0.055
same,area with substrate ENLYFGS,0.0538
same,area with substrate ENLYFIS,0.0575
same,area with substrate ENLYFKS,0.0638
same,area with substrate ENLYFLS,0.0582
same,area with substrate ENLYFMS,0.0603
same,area with substrate ENLYFPS,0.0615
same,area with substrate ENLYFSS,0.0572
same,area with substrate ENLYFTS,0.0608
same,area with substrate ENLYFVS,0.0534
same,area with substrate ENLYFWS,0.0608
K46A,area with substrate ENLYFAS,0.0583
same,area with substrate ENLYFCS,0.0632
same,area with substrate ENLYFDS,0.061
same,area with substrate ENLYFES,0.0508
same,area with substrate ENLYFFS,0.0702
same,area with substrate ENLYFHS,0.0491
same,area with substrate ENLYFIS,0.0471
same,area with substrate ENLYFKS,0.0573
same,area with substrate ENLYFLS,0.0835
same,area with substrate ENLYFMS,0.0695
same,area with substrate ENLYFNS,0.0651
same,area with substrate ENLYFPS,0.0624
same,area with substrate ENLYFRS,0.0629
same,area with substrate ENLYFSS,0.0533
same,area with substrate ENLYFTS,0.0465
same,area with substrate ENLYFVS,0.063
same,area with substrate ENLYFWS,0.0341
same,area with substrate ENLYFYS,0.0543
G39M,area with substrate ENLYFAS,0.0353
same,area with substrate ENLYFCS,0.0366
same,area with substrate ENLYFDS,0.0381
same,area with substrate ENLYFFS,0.044
same,area with substrate ENLYFGS,0.039
same,area with substrate ENLYFHS,0.0406
same,area with substrate ENLYFIS,0.0406
same,area with substrate ENLYFKS,0.051
same,area with substrate ENLYFLS,0.0404
same,area with substrate ENLYFMS,0.0443
same,area with substrate ENLYFNS,0.0329
same,area with substrate ENLYFPS,0.0354
same,area with substrate ENLYFRS,0.0448
same,area with substrate ENLYFSS,0.0407
same,area with substrate ENLYFTS,0.0299
same,area with substrate ENLYFVS,0.0347
same,area with substrate ENLYFWS,0.0341
same,area with substrate ENLYFYS,0.04
G39I,area with substrate ENLYFAS,0.0409
same,area with substrate ENLYFCS,0.0464
same,area with substrate ENLYFES,0.0509
same,area with substrate ENLYFFS,0.0521
same,area with substrate ENLYFGS,0.0297
same,area with substrate ENLYFHS,0.0297
same,area with substrate ENLYFIS,0.0431
same,area with substrate ENLYFLS,0.0668
same,area with substrate ENLYFMS,0.0464
same,area with substrate ENLYFNS,0.0476
same,area with substrate ENLYFPS,0.0401
same,area with substrate ENLYFRS,0.0422
same,area with substrate ENLYFTS,0.0502
same,area with substrate ENLYFWS,0.0381
G39R,area with substrate ENLYFAS,0.0514
same,area with substrate ENLYFCS,0.0376
same,area with substrate ENLYFES,0.057
same,area with substrate ENLYFFS,0.0479
same,area with substrate ENLYFHS,0.0549
same,area with substrate ENLYFIS,0.047
same,area with substrate ENLYFKS,0.0484
same,area with substrate ENLYFMS,0.0429
same,area with substrate ENLYFNS,0.0411
same,area with substrate ENLYFPS,0.0242
same,area with substrate ENLYFRS,0.0549
same,area with substrate ENLYFSS,0.0467
same,area with substrate ENLYFTS,0.0531
same,area with substrate ENLYFWS,0.0529
G39E,area with substrate ENLYFAS,0.0467
same,area with substrate ENLYFCS,0.0434
same,area with substrate ENLYFDS,0.0616
same,area with substrate ENLYFES,0.047
same,area with substrate ENLYFFS,0.0469
same,area with substrate ENLYFHS,0.0296
same,area with substrate ENLYFIS,0.0403
same,area with substrate ENLYFKS,0.0423
same,area with substrate ENLYFMS,0.047
same,area with substrate ENLYFNS,0.0727
same,area with substrate ENLYFPS,0.0472
same,area with substrate ENLYFRS,0.0299
same,area with substrate ENLYFSS,0.0431
same,area with substrate ENLYFTS,0.0427
same,area with substrate ENLYFVS,0.0593
same,area with substrate ENLYFWS,0.044
same,area with substrate ENLYFYS,0.0358
F38Y,area with substrate ENLYFAS,0.0356
same,area with substrate ENLYFCS,0.0545
same,area with substrate ENLYFDS,0.0578
same,area with substrate ENLYFES,0.066
same,area with substrate ENLYFFS,0.0744
same,area with substrate ENLYFHS,0.0794
same,area with substrate ENLYFIS,0.0544
same,area with substrate ENLYFKS,0.0535
same,area with substrate ENLYFLS,0.0592
same,area with substrate ENLYFMS,0.0563
same,area with substrate ENLYFNS,0.0618
same,area with substrate ENLYFPS,0.0632
same,area with substrate ENLYFSS,0.0564
same,area with substrate ENLYFWS,0.0373
same,area with substrate ENLYFYS,0.0497
F38W,area with substrate ENLYFAS,0.0594
same,area with substrate ENLYFCS,0.0757
same,area with substrate ENLYFES,0.0669
same,area with substrate ENLYFFS,0.0725
same,area with substrate ENLYFHS,0.0732
same,area with substrate ENLYFIS,0.0557
same,area with substrate ENLYFKS,0.0573
same,area with substrate ENLYFLS,0.0516
same,area with substrate ENLYFMS,0.0702
same,area with substrate ENLYFNS,0.068
same,area with substrate ENLYFPS,0.0596
same,area with substrate ENLYFRS,0.069
same,area with substrate ENLYFSS,0.056
same,area with substrate ENLYFTS,0.0564
same,area with substrate ENLYFWS,0.063
F38I,area with substrate ENLYFAS,0.0624
same,area with substrate ENLYFCS,0.0436
same,area with substrate ENLYFES,0.0581
same,area with substrate ENLYFFS,0.0696
same,area with substrate ENLYFHS,0.0564
same,area with substrate ENLYFIS,0.056
same,area with substrate ENLYFLS,0.0507
same,area with substrate ENLYFMS,0.0529
same,area with substrate ENLYFPS,0.0581
same,area with substrate ENLYFRS,0.0525
same,area with substrate ENLYFTS,0.0513
same,area with substrate ENLYFVS,0.0707
F38C,area with substrate ENLYFAS,0.0608
same,area with substrate ENLYFDS,0.0478
same,area with substrate ENLYFES,0.0628
same,area with substrate ENLYFFS,0.0747
same,area with substrate ENLYFGS,0.0465
same,area with substrate ENLYFHS,0.0497
same,area with substrate ENLYFIS,0.0498
same,area with substrate ENLYFKS,0.037
same,area with substrate ENLYFMS,0.0657
same,area with substrate ENLYFNS,0.0641
same,area with substrate ENLYFPS,0.0493
same,area with substrate ENLYFSS,0.0647
same,area with substrate ENLYFTS,0.049
same,area with substrate ENLYFVS,0.0558
same,area with substrate ENLYFWS,0.0582
same,area with substrate ENLYFYS,0.0507
